From PubChem BioAssay AID463173 (ICCB-Longwood Screening Facility, Harvard Medical School, 2010) come the findings set out here.

SMILES strings stand for the structures. About 4,300 (8.3%) of roughly 52,000 compounds were called active. Cut-off read from the data, not from the text of the source: active = survival mostly below about 52% (no sharp cut-off); inactive = mostly above about 56%. This is one part of the list.

This assay concerns DeltatarO mutant. Briefly: S. aureus survival, RN4220 and DeltatarO strains – OD600, teichoic acid synthesis inhibitors, primary screen (AID 463173). The following applies: S. aureus RN4220 wild type/DeltatarO growth, OD600, 18 h, stronger effect = lower value, screened at 18.75 µg/mL (by protocol).
For the compound `COc1ccc(CCN2C(=O)CN(C3CCCCCC3)C(=O)C2c2ccc(Cl)cc2)cc1OC` (stereo not given), the survival is inactive: 81%.

For the compound `O=C(Cn1ncc2c3ccccc3n(Cc3ccccc3)c2c1=O)NCCCN1CCCCC1`, the survival is inactive: 103%.

Turning to `COc1ccccc1C1C(C(=O)Nc2ccccc2)=C(C)Nc2nc(-c3ccccc3)nn21` (stereo not given), the survival is inactive: 52%.

Consider `O=C(C1CC(c2ccccc2O)=NO1)N1CCCC1` (stereo not given), for which the survival was inactive: 91%. For `O=c1c2ccccc2nc(SCCN2CCCCC2)n1CC1CCCO1` (stereo not given) the value was inactive: 84%; for `CC(=O)N1CCc2cc(S(=O)(=O)NC(Cc3ccccc3)C(=O)Nc3cc(C)cc(C)c3)ccc21` (stereo not given), inactive: 69%.

`COc1ccccc1N1CCN(Cc2nc(-c3cc(OC)c(OC)c(OC)c3)no2)CC1`: the survival is inactive: 131%. Turning to `CC1CCCCN1CCCNC(=O)Cn1ncc2c3ccccc3n(Cc3ccccc3)c2c1=O` (stereo not given), the survival is inactive: 113%. For `CCOc1ccccc1C(=O)N(C)c1ccccc1` the value was inactive: 92%; for `O=C(O)c1ccc(CN2CCCCC2)cc1`, inactive: 79%; for `CCCc1cc(=O)[nH]c(SCc2nc(-c3ccccc3)no2)n1`, active: 0%. For `O=S1(=O)c2ccccc2N(Cc2ccc(F)cc2)c2ccccc21` the value was inactive: 78%. For `O=C(NCCOCCn1c(=O)oc2ccccc21)Nc1ccc(F)cc1F` the value was inactive: 76%; for `C=C(C)c1cccc(C(C)(C)NC(=O)NC2CC(C)(C)NC(C)(C)C2)c1`, inactive: 107%. `COc1ccc(-c2cc(C(=O)Oc3ccc(C#N)cc3)no2)cc1`: the survival was inactive: 101%. To `COc1ccc(CNC(=O)C(CC(C)C)NS(=O)(=O)c2ccc3c(c2)CCN3C(C)=O)cc1` (stereo not given) belongs inactive: 92%; to `CCc1cccc(C)c1Nc1c(-c2ccc(N(C)C)cc2)nc2cnccn12`, inactive: 44%. To `O=C(NC12CCC(O)C(SC1)C2O)c1ccccc1` (stereo not given) belongs inactive: 109%. Regarding `COc1cccc(CNC(=O)c2ccc3nc(CCc4ccccc4)oc3c2)c1OC`, the survival is inactive: 73%.

`CCCOc1ccc(CN2C(=O)C(=O)c3cccc(C)c32)cc1`: the survival was active: 39%. For `CCOc1ccc(CNCCSc2nnnn2C)cc1` the value was inactive: 61%; for `COc1cc(Br)cc2cc(S(=O)(=O)c3ccccc3)c(=O)oc12`, inactive: 84%. For `Cc1cccc(NC(=O)CSc2nc3ccc(NC(=O)CCc4ccccc4)cc3s2)c1` the value was inactive: 80%.

Consider `Cc1ccc(-c2nc(CS(=O)(=O)CC(=O)N3CCN(c4ccccc4)CC3)c(C)o2)cc1`, for which the survival was inactive: 75%. As for `Cc1ccc(C2=NNC(C(O)C(O)C(O)C(O)CO)S2)cc1` (stereo not given), the survival was inactive: 85%. Consider `CCCSCCCNC(=O)c1sc2nc(C)cc(C)c2c1-n1cccc1`, for which the survival is inactive: 89%. For `COc1cccc(NCc2nnc3n2CCCCC3)c1` the value was inactive: 94%; for `Cc1ccc(-c2noc(-c3cccnc3N(C)Cc3ccc(Cl)cc3)n2)cc1`, inactive: 70%. In the case of `CCOC(=O)Cn1nnnc1C(C(C)C)N(Cc1ccc(F)cc1)Cc1cc2cc3c(cc2[nH]c1=O)OCO3` (stereo not given), the survival was inactive: 73%. To `CCOC(=O)c1c(S(=O)(=O)N2CCN(c3cccc(C(F)(F)F)c3)CC2)c(C)n(C)c1C` belongs inactive: 116%. For the compound `CCCn1cc(S(=O)(=O)c2ccc(CC)cc2)c(=O)c2cc(F)c(N3CCN(C)CC3)cc21`, the survival is inactive: 79%. For `CCOc1ccc(Cn2c(CNS(=O)(=O)c3ccc(CC)cc3)nc3cccnc32)cc1` the value was inactive: 95%; for `COc1ccc(OC)c(CCNC(=O)c2nn(C)c3c2CSc2ccccc2-3)c1`, inactive: 82%. To `CNC(=O)c1ccc2nc(Cc3ccccc3)oc2c1` belongs active: 37%; to `CCC1CCc2c(sc(NC(=O)C3c4ccccc4Oc4ccccc43)c2C(=O)OC)C1` (stereo not given), inactive: 72%. For `CC(C)c1ccc2oc(-c3ccc(Cl)c(NC(=O)Cc4ccccc4)c3)nc2c1` the value was inactive: 116%. On to `CCOC(=O)N1CCC(NC(=O)c2ccc3c(c2)N(Cc2ccc(Cl)cc2)C(=O)c2ccccc2S3(=O)=O)CC1`, for which the survival was inactive: 72%. As for `Cc1ccc(C(=O)c2oc3ccccc3c2NC(=O)C(C)Oc2ccccc2Cl)cc1` (stereo not given), the survival was active: 40%. For `COc1ccccc1C(=O)N=C1NC(=O)CC2C(=O)NCCN12` (stereo not given) the value was inactive: 89%.

As to `CC(C)c1ccc(C2=NC(c3ccncc3)=Nc3ccc(F)cc3N2)cc1`, the survival was inactive: 59%. Take `O=C(Nc1nc2c(s1)CCCC2)c1ccccc1F`: the survival is inactive: 76%. To `CCOc1ccc(OCC)c(Nc2nc3ccc(C(=O)c4ccccc4)cc3n3cnnc23)c1` belongs inactive: 77%; to `COc1ccc2c(c1)CC(C(=O)Nc1ccc(OC)cc1OC)CO2` (stereo not given), inactive: 89%; to `O=C(Cn1cc(SCc2ccccc2F)c2ccccc21)N1CCCC1`, inactive: 57%. For `Cc1cc(Br)ccc1NC(=O)CCNS(=O)(=O)c1cccc2nonc12` the value was active: 43%; for `CC1CCN(C(=O)c2ccc3c(c2)nnn3C)CC1`, inactive: 83%; for `COc1ccc(NC(=O)c2c(NCc3cccs3)sc3c2CCCCC3)c(OC)c1`, inactive: 69%. For the compound `O=C(Nc1ccc(Br)cc1F)c1cc2nc(-c3ccco3)cc(C(F)(F)Cl)n2n1`, the survival was inactive: 82%.

As to `O=C(c1cnn2c(C(F)F)cc(-c3ccccc3)nc12)N1CCCC1`, the survival is inactive: 84%.

With `O=C(NC1CCCC1)c1ccc(CSc2nc3cccnc3n2Cc2ccccc2)cc1`, the survival was inactive: 95%. To `COc1ccc(CCNC(=O)CSCc2nc(-c3cccc(C)c3)oc2C)cc1OC` belongs inactive: 66%; to `O=C(NCc1ccccc1)c1ccc2c(c1)N(Cc1ccc(F)cc1)CCS2`, inactive: 73%. For `COC(=O)C1CC(=O)N(c2ccccc2)C1` (stereo not given) the value was inactive: 72%; for `CCc1ccc(NC(=O)C2CCN(S(=O)(=O)c3c(C)noc3C)CC2)cc1`, inactive: 104%; for `Cn1c(=O)c2cc(C(=O)Nc3cccc(C#N)c3)sc2c2ccccc21`, inactive: 106%. For `COc1ccc(C2=NN(CC(=O)NCCc3ccccc3)C(=O)CC2)cc1` the value was inactive: 125%; for `CCCC(=O)Nc1sc2c(c1C(N)=O)CCC2`, inactive: 65%; for `COc1ccc(CNC(=O)c2cc3oc4ccccc4c3n2C)cc1OC`, active: 43%.

As to `CCCNC(=O)CN1C(=O)c2c(c3ccccc3n2C)C1c1ccc(OC)cc1` (stereo not given), the survival is inactive: 71%.

On to `CCc1ccc(S(=O)(=O)c2nnn3c2nc(N2CCC(C(N)=O)CC2)c2cc(Cl)ccc23)cc1`, for which the survival was inactive: 69%.
